Out of some 43,000 compounds screened, about 200 (0.47%) were called active. About 12% were inconclusive and are not listed. Calls come from the whole dose curve; as a rule, active = well fitted cell-killing curve with a large enough effect; inconclusive = small, poorly fitted or top-dose-only effect, or effect the other way; inactive = flat fitted curve, though single readings scatter. The list shows a part of the results.
Assay: Cell viability qHTS assay in S16 Pmp22-F2sN cells; note: nearly all actives have a fitted effect of over 65% in size
Settings: S16 Pmp22-F2sN Schwann cells viability, CellTiter-Glo, 24 h; series mostly up to 57.5 µM; activity change, negative = cytotoxicity: at the top concentration
How it was run: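 Used to flag compounds lowering reporter output through toxicity, this quantitative HTS measures ATP-based CellTiter-Glo luminescence in S16 Pmp22-F2sN Schwann cells after 24 h compound exposure at 37C.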
% is set by controls: 0 for no effect and ±100 for the full control effect.

| SMILES | activity change, negative = cytotoxicity |
| --- | --- |
| Cc1ccc(NC(=O)N2CCN3CCCCC3C2)cc1C (configuration not stated) | inactive: 23% |
| CCOc1ccc(NC(=O)c2nn(C)c3c2COc2ccccc2-3)cc1 | inactive: 3.31% |
| COc1ccc2c(c1)c1c(c(=O)n(-c3cc(Cl)ccc3C)c(=O)n1Cc1ccc(F)cc1)n2C | inactive: 11.7% |
| COc1ccc(-c2[nH]c(-c3ccc(C)cc3)nc2SCC(=O)NCC2CCCO2)cc1 (configuration not stated) | inactive: -1.44% |
| COc1cccc(NC(=O)CSc2nc(=O)[nH]c3c2CCCC3)c1 | inactive: 13.5% |
| CCSc1ncc(Cl)c(C(=O)Nc2cc(C)ccc2C)n1 | inactive: 15.2% |
| CC(=O)c1c(C)n(-c2cccc(Cl)c2)c2ccc(OC(=O)c3ccccc3)cc12 | inactive: 3.69% |
| CCCOC(=O)c1c(-c2ccccc2)c(-c2ccccc2)nn(C)c1=O | inactive: 9.11% |
| Cc1cc(C)c(-c2n[nH]c3c2C(c2ccccc2F)N(CCO)C3=O)c(O)c1 (configuration not stated) | inactive: 1.7% |
| COC(=O)c1c(NC(=O)CS(=O)(=O)c2ccc(C)cc2)sc2c1CCCCC2 | inactive: -0.341% |
| CCOc1cc2[nH]c(=O)n(CCC(=O)N3CCN(c4ccccc4)CC3)c(=O)c2cc1OCC | inactive: 1.27% |
| O=C(c1ccc(Cl)cc1)n1nc(-c2ccccc2)nc1NCc1ccco1 | inactive: -3.75% |
| Cc1ccc2scc(N3CCCC(C)C3)c(=O)c2c1 (configuration not stated) | inactive: 18% |
| Cn1c(=O)n(C)c2cc(CNCc3ccccc3Cl)ccc21 | inactive: 3.63% |
| CCc1cccc(NC(=O)CN2C(=O)COc3ccc(S(=O)(=O)N4CCC(C)CC4)cc32)c1 | inactive: 1.96% |
| CC(=O)Nc1ccc(S(=O)(=O)NC2(C(F)(F)F)C(=O)Nc3c2c(=O)[nH]c(=O)n3-c2ccc(C)cc2)cc1 (configuration not stated) | inactive: -2.76% |
| CCOCCCNC(=O)C(c1ccc(OC)cc1)N(Cc1cccs1)C(=O)CNC(C)=O (configuration not stated) | inactive: -8.25% |
| Cc1ccc(C(=O)CC2(O)C(=O)N(CCc3ccccc3)c3ccc(Br)cc32)cc1 (configuration not stated) | inactive: 5.75% |
| Cc1ccc(Cn2c(C)c3cnn(CC(=O)N4CCN(c5cc(C)ccc5C)CC4)c(=O)c3c2C)cc1 | inactive: -16.5% |
| COc1cccc(-n2c(C)nc3c(cnn3-c3ccc(C)c(C)c3)c2=O)c1 | inactive: -0.728% |
| O=c1oc2ccc(Cl)cc2cc1-c1nc(-c2cccs2)no1 | inactive: -0.497% |
| CCOC(=O)c1cc2c(=O)n3ccccc3nc2n(CCCOC)c1=NC(=O)c1cc2ccccc2o1 | inactive: 2.75% |
| COc1ccc(NC(=O)Cn2c(=O)n(Cc3ccccc3Cl)c(=O)c3cc(OC)c(OC)cc32)cc1 | inactive: 1.82% |
| Cc1ccc(N2CCn3c2nc2c3c(=O)n(Cc3cccc(Cl)c3)c(=O)n2C)cc1C | inactive: 2.32% |

| SMILES | activity change, negative = cytotoxicity |
| --- | --- |
| CC(C)c1ccc(NC(=O)CN2C(=O)C3(SCC(=O)N3c3ccc(F)cc3)c3ccccc32)cc1 (configuration not stated) | inactive: -26.4% |
| O=C(Nc1ccc(Cl)cc1)c1ccc2c(c1)N(Cc1ccccc1)CCS2 | inactive: -5.33% |
| COc1ccc(NC(=O)Cn2c(=O)n(Cc3ccco3)c(=O)c3sc4ccccc4c32)cc1Cl | inactive: 21.6% |
| Cc1nc(CC(=O)Nc2ccc(C(N)=O)cc2)cs1 | inactive: -2.01% |
| CCSC1=NC2(CCN(C(=O)NC3CCCCC3)CC2)N=C1c1ccc(OC)cc1 | inactive: -17.5% |
| CCOc1ccccc1CNC(=O)CCc1cn(C)c2ccccc12 | inactive: 4.73% |
| CC(C(=O)NCc1ccccc1)n1ccc2cc(S(=O)(=O)N3CCCC3)ccc21 (configuration not stated) | inactive: 5.81% |
| O=C(CN1C(=O)CCSc2ccc(S(=O)(=O)N3CCCC3)cc21)Nc1ccccc1Cl | inactive: 0.0251% |
| CCN(C(=O)CSc1nc2ccccc2nc1Cc1ccccc1OC)c1ccccc1 | inactive: 3.12% |
| CCCC12CN3CC(CCC)(CN(C1)C3c1c[nH]c3ccc(OC)cc13)C2=O (configuration not stated) | inactive: 3.93% |
| CCCOc1ccc(CC2C(=O)Nc3ccc(Br)cc32)cc1 (configuration not stated) | inactive: 5.41% |
| Cc1ccc(C(=O)COC(=O)C(Cc2c[nH]c3ccccc23)NC(=O)c2ccc(Br)cc2)cc1 (configuration not stated) | inactive: 2.28% |
| Cc1nnc(N2CCC(C(=O)NCc3ccc(N(C)C)cc3)CC2)c2nn(-c3ccccc3)c(C)c12 | inactive: -0.292% |
| CCc1nn(CC(=O)NCc2cccc(OC)c2OC)c(=O)c2cc3occc3n12 | inactive: 14.2% |
| COc1ccc(OC)c(CNC(=O)Cn2nc(C)c3c(C)n(-c4ccccc4)nc3c2=O)c1 | inactive: 3.64% |
| Cc1cc2oc(C(=O)Nc3cccc(-c4nc5ccccc5o4)c3)c(C)c2cc1Cl | inactive: 1.05% |
| O=C(Nc1ccc(Cl)cc1)c1ccc2c(c1)N(Cc1ccccc1)C(=O)c1ccccc1S2(=O)=O | inactive: -1.67% |
| CN(CC(=O)Nc1cccc(C#N)c1)S(=O)(=O)c1cc2c(cc1Cl)NC(=O)CO2 | inactive: 2.51% |
| CCOc1ccccc1CNC(=O)CC(C)n1ccc(C)n1 (configuration not stated) | inactive: 4.92% |
| O=C(CSc1nc2ccccc2n1Cc1cccc(Cl)c1)N1CCN(c2ccc(F)cc2)CC1 | inactive: 4.52% |
| CNC(=O)c1c(NC(=O)c2cc(=O)c3ccccc3o2)sc2c1CCC2 | inactive: 6.3% |
| COc1ccc(-c2nc3ccccc3s2)cc1NC(=O)c1ccccc1OC | inactive: 13.6% |
| Cc1cccc(NC(=O)c2sc3cccc(Cl)c3c2Cl)c1 | inactive: -10.5% |
